Experimental data as given in PubChem BioAssay AID504832 (National Center for Advancing Translational Sciences (NCATS), 2011).
In all, about 310,000 compounds went through this assay and about 18,000 (5.8%) were called active. The shares of active, inactive and inconclusive entries below differ from those in the screen. Calls follow the shape of the dose curve; as a rule, active = well fitted inhibition curve with a large enough effect; inconclusive = small, poorly fitted or top-dose-only effect, or another doubt; inactive = no such curve, though single readings can be large or run the other way. Potencies of inconclusive entries are left out as doubtful fits.
% is scaled to controls: 0 for no effect and ±100 for the full control effect; potency is read from the fitted curve at half-maximal effect; tags tell the direction and shape of the fitted curve.

Test: Primary qHTS for delayed death inhibitors of the malarial parasite plastid, 48 hour incubation
Settings: P. falciparum luciferase growth in erythrocytes; series mostly up to 28.7 µM; activity change, negative = inhibition: at the top concentration
From the text: The goal of this screen is to discover new antimalarial compounds that act by inhibiting the development of the apicoplast in the malarial parasite Plasmodium falciparum. The biochemical processes that make this organelle essential for erythrocytic stage parasites are not well understood. However, antibiotics such as azithromycin and tetracycline, which target the apicoplast translational machinery, have a potent antimalarial effect.
We have developed a cell-based assay that measures parasite growth based on the expression of an integrated copy of a firefly luciferase reporter. To detect small molecules that cause this "delayed death" phenotype, erythrocytes infected with the luciferase-expressing parasites were incubated with compounds for either one or two generations, corresponding to 48 and 96 hours, respectively. Compounds that inhibit parasite growth in the second generation, but not the first, should be enriched in antimalarials that target the apicoplast. Growth inhibition is detected by a decrease in luciferase activity.
Assay Provider: David Fidock and Eric Ekland, Columbia University
Keywords: NIH Roadmap, MLPCN, MLI, MLSMR, qHTS, NCGC, qHTS, malaria, luciferase, viability
Four microliters of culture medium (RPMI 1640 with 0.5% w/v Albumax (GIBCO), 24 mM sodium bicarbonate and 10 ug/mL gentamycin) were dispensed by a Multi-drop Combi into white solid 1536-well plates (Grenier) and 23 nL compound was added by a pin tool. Four microliters of infected erythrocytes (2% hematocrit, 0.1% parasitemia final concentration) in culture medium were dispensed and the plates incubated for 48 hours at 37 C in 5% CO2. Two microliters of luciferase detection reagent was added and luminescence was detected by a ViewLux (PerkinElmer) reader.
With `CCOc1ccc(NC(=O)CN2CCN(CC(=O)Nc3ccc4c(c3)OCO4)CC2)cc1` the Potency was inconclusive [inhibitor, partial curve, poor fit].
In the case of `COc1ccc(CN(CCc2ccccc2)Cc2ccccc2)cc1OC`, the Potency is reported as active: 8.28 µM.
With `CCC(=O)N(Cc1cc2cc(OC)ccc2[nH]c1=O)c1cccc(C)c1` the Potency was inconclusive [inhibitor, single point].
For `CSc1nnc(-c2sccc2OCc2ccccc2)n1C`, the “activity change, negative = inhibition” value was inactive: -4.44%.
In the case of `COc1ccc(OC)c2c(C)c(C)[nH]c12`, the Potency is reported as inconclusive [inhibitor, full curve, poor fit].
With `CCOC(=O)c1c(C)[nH]c2cc(Br)c(OC)cc12` the Potency was inconclusive [inhibitor, full curve, poor fit].
With `CC1(C)CC(CCN)(Cc2ccccc2Cl)CCO1` (configuration not stated) the Potency was inconclusive [inhibitor, single point].
In the case of `COc1ccc(C(=O)NCCn2cc(SCC(=O)NCc3ccco3)c3ccccc32)cc1`, the Potency is reported as inconclusive [inhibitor, single point].
For `O=C(Nc1ccc(NC(=O)c2ccco2)nc1)c1ccccn1`, the “activity change, negative = inhibition” value was inactive: 229%.
In the case of `O=C(Nc1nc2c(s1)CCCC2)c1cc(-c2ccccc2)nc2ccccc12`, the Potency is reported as inconclusive [inhibitor, single point].
With `CCOC(=O)c1c(-c2ccc(-c3ccccc3)cc2)csc1NC(=O)C1C2CCC(O2)C1C(=O)O` (configuration not stated) the Potency was inconclusive [inhibitor, partial curve, poor fit].
With `Cc1cc(C)c(NC(=O)CSc2ccc3nnc(CCNC(=O)c4ccccc4)n3n2)c(C)c1` the Potency was inconclusive [inhibitor, partial curve, poor fit].
For `COc1cccc(C(=O)Nc2c[nH]c(=O)[nH]c2=O)c1`, the “activity change, negative = inhibition” value was inactive: 65.7%.
For `CC(C)=CCN1CCN(Cc2cc(F)ccc2-n2nc(C)cc2C)CC1CCO` (configuration not stated), the “activity change, negative = inhibition” value was inactive: 10.8%.
With `CC(=O)N1CCN(C2=NC(=O)/C(=C/c3ccc(OS(=O)(=O)c4ccccc4)cc3)S2)CC1` the Potency was inconclusive [inhibitor, partial curve].
In the case of `O=P(c1ccccc1)(c1ccccc1)C(c1ccco1)N1CCOCC1` (configuration not stated), the Potency is reported as inconclusive [inhibitor, full curve, poor fit].
With `COC(=O)c1ccc(OC)c(CN2CCCN(Cc3ccc(F)cc3)S2(=O)=O)c1` the Potency was inconclusive [inhibitor, partial curve].
With `Cc1cc2cc3c(cc2nc1SCC(=O)N1CCCC1)OCCO3` the “activity change, negative = inhibition” value was inactive: -7.32%.
With `COc1ccc(CN(Cc2ccc(OC)cc2)S(=O)(=O)c2ccc(-n3cnnn3)c(C)c2)cc1` the Potency was inconclusive [inhibitor, full curve, poor fit].
In the case of `CCCc1[nH]nc2c1C1(C(=O)N(CC(N)=O)c3ccccc31)C(C(=O)OC)=C(N)O2` (configuration not stated), the Potency is reported as inconclusive [inhibitor, partial curve].
For `Cc1nc(CSc2nnc3scc(-c4ccc(Cl)cc4)n23)cs1`, the Potency was inconclusive [inhibitor, single point].
For `COc1ccccc1NC(=O)c1ccccc1N(Cc1ccccc1)S(C)(=O)=O`, the Potency was inconclusive [inhibitor, single point].
For `CSc1ccc(CNCC(O)c2ccccc2)cc1` (configuration not stated), the Potency was inconclusive [inhibitor, single point].
With `CCOCCn1c(=NC(=O)c2ccc(S(=O)(=O)N3CCOCC3)cc2)sc2cc(S(N)(=O)=O)ccc21` the Potency was active: 14.7 µM.
With `Cn1nnc2cc(NC(=O)N3CCN(c4ccccn4)CC3)ccc21` the Potency was inconclusive [inhibitor, single point].
In the case of `Cc1ccc(C)c(CSc2nc3[nH]ncc3c(=O)[nH]2)c1`, the “activity change, negative = inhibition” value is reported as inactive: -25%.
For `O=C1C=C(c2ccccc2)C[C@H](c2cccs2)[C@H]1n1nnc([N+](=O)[O-])n1`, the Potency was active: 1.85 µM.
In the case of `COc1cccc(C2=CC(c3ccc(C)cc3)n3ncnc3N2)c1` (configuration not stated), the Potency is reported as inconclusive [inhibitor, single point].
In the case of `CC1Cc2ccccc2N1CC(=O)Nc1ccc(N2CCOCC2)cc1` (configuration not stated), the “activity change, negative = inhibition” value is reported as inactive: -13.4%.
With `CCSc1nnc(NC(=O)c2nc(S(=O)(=O)Cc3ccc(F)cc3)ncc2Cl)s1` the “activity change, negative = inhibition” value was inactive: 17.7%.
With `CCOC(=O)c1cccc(NC(=S)NC(=O)c2cccnc2)c1` the Potency was inconclusive [inhibitor, full curve, poor fit].
With `O=C(O)COc1ccccc1/C=N/NC(=O)C(O)c1ccccc1` (configuration not stated) the “activity change, negative = inhibition” value was inactive: 5.37%.
With `c1ccc(Nc2ccccc2Nc2ccccn2)nc1` the Potency was inconclusive [inhibitor, single point].
In the case of `COc1ccc(/C=C2\SC(=O)N(CCNC(=O)C3CSC4(C)CCC(=O)N34)C2=O)cc1` (configuration not stated), the Potency is reported as inconclusive [inhibitor, single point].
For `COc1ccc(OCCn2c(N)nc3ccccc32)cc1`, the Potency was inconclusive [inhibitor, full curve, poor fit].
In the case of `CCc1nnc(NC(=O)C2CSC3(C)CCC(=O)N23)s1` (configuration not stated), the “activity change, negative = inhibition” value is reported as inactive: 5.05%.
With `CCc1nn(C(CC)C(=O)NCC(C)c2ccccc2)c(=O)c2cc3occc3n12` (configuration not stated) the Potency was inconclusive [inhibitor, partial curve].
In the case of `COCCNC(=O)NC12CC3CC(CC(C3)C1)C2`, the Potency is reported as inconclusive [inhibitor, partial curve].
For `CCCNC(=O)CSc1nccn1Cc1ccc(OC)cc1`, the Potency was inconclusive [inhibitor, partial curve, poor fit].
For `Cc1cc(Cl)ccc1NC(=O)CN1CCC(C(O)(c2ccccc2)c2ccccc2)CC1`, the Potency was inconclusive [inhibitor, partial curve, poor fit].
In the case of `CC(=O)Nc1ccc(S(=O)(=O)NNC(=O)c2cccc(Br)c2)cc1`, the “activity change, negative = inhibition” value is reported as inactive: -5.86%.
For `CCCS(=O)(=O)c1c(S(=O)(=O)CCC)c2cnccn2c1C(=O)c1ccc(CC)cc1`, the Potency was active: 3.29 µM.
With `CC(C)(C)NC(=O)c1ccc2c(c1)N(CC(=O)N1CCCC1)C(=O)C(C)(C)O2` the “activity change, negative = inhibition” value was inactive: -11.4%.
For `COc1ccc(Nc2nc(Nc3ccc(OC)cc3OC)nc(N3CCN(C)CC3)n2)c(OC)c1`, the Potency was inconclusive [inhibitor, single point].
In the case of `Cc1cc(NC(=O)c2ccc(Cl)c([N+](=O)[O-])c2)no1`, the “activity change, negative = inhibition” value is reported as inactive: 37.8%.
For `COc1ccc(NC(=O)Cc2ccc(-c3ccccc3)cc2)cn1`, the Potency was inconclusive [inhibitor, partial curve, poor fit].
In the case of `Cc1ccccc1-n1ncc(C(C)NS(=O)(=O)c2sccc2C)c1C` (configuration not stated), the Potency is reported as inconclusive [inhibitor, partial curve, poor fit].
In the case of `CCOC(=O)C1CCCN(C(=O)c2cc(S(=O)(=O)N3CCCCC3)ccc2Cl)C1` (configuration not stated), the Potency is reported as inconclusive [inhibitor, partial curve].
With `Cc1cc2occ(CC(=O)N(CCC(C)C)c3c(N)n(Cc4ccccc4)c(=O)[nH]c3=O)c2cc1C` the Potency was inconclusive [inhibitor, single point].
In the case of `CSc1nsc(SCC(=O)N2CCN(c3ccccc3)CC2)n1`, the “activity change, negative = inhibition” value is reported as inactive: 10.6%.
With `CCCn1nc2cc(C(=O)NCc3ccc(C)cc3)ccc2c1OCC` the Potency was inconclusive [inhibitor, partial curve, poor fit].
In the case of `CC(=O)N1CCN(c2ccccc2NC(=S)NC(=O)c2cc3ccccc3o2)CC1`, the Potency is reported as inconclusive [inhibitor, single point].
For `CN(C)CCCNc1cc(-c2ccccc2)nc2cc(-c3cccc(F)c3)nn12`, the Potency was inconclusive [inhibitor, partial curve, poor fit].
In the case of `CCC(=O)N1c2ccccc2C(N(C(=O)CC)c2ccccc2)CC1C` (configuration not stated), the Potency is reported as inconclusive [inhibitor, single point].
For `Cc1nc2oc3c(NCC4CCCO4)ncnc3c2c2c1COC(C)(C)C2` (configuration not stated), the Potency was inconclusive [inhibitor, single point].
In the case of `COc1cc(/C=C(\C#N)c2nc3ccccc3[nH]2)ccc1O`, the Potency is reported as inconclusive [inhibitor, single point].
In the case of `O=S(=O)(c1ccccc1)N1CCN(C(=S)NCc2ccccc2)CC1`, the Potency is reported as active: 2.62 µM.
For `Nc1nnnn1CC(=O)N/N=C/c1cccs1`, the “activity change, negative = inhibition” value was inactive: 3.69%.
With `O=C(O)CCSC(=S)N1CCOCC1` the “activity change, negative = inhibition” value was inactive: 23.1%.
For `Cc1c(C(=O)Nc2cc(S(=O)(=O)N3CCOCC3)ccc2N2CCOCC2)oc2ccccc12`, the Potency was active: 10.4 µM.
With `CCOC(=O)c1[nH]c(C)c(C(=O)N2CCc3c([nH]c4ccccc34)C2c2ccccn2)c1C` (configuration not stated) the Potency was inconclusive [inhibitor, partial curve, poor fit].
For `CC(C)=CCC/C(C)=C/C=C/C(C)=C/C=C/C(C)=C/C=C/C=C(C)/C=C/C=C(C)/C=C/C=C(\C)CCC=C(C)C`, the Potency was inconclusive [inhibitor, single point].
In the case of `Cc1cc(NC(=O)c2cc(-c3cccnc3)nc3c(C)c(C)ccc23)no1`, the Potency is reported as active: 2.94 µM.
For `COc1ccc(CCN2C(=O)CC(NCc3ccc4c(c3)OCO4)C2=O)cc1OC` (configuration not stated), the Potency was inconclusive [inhibitor, single point].
With `CC1=C(/C=C/C(C)=C/C=C/C(C)=C/C(=O)O)C(C)(C)CCC1` the Potency was inconclusive [inhibitor, partial curve, poor fit].
With `CCOC(=O)C1=C(N)Oc2ccc3ccccc3c2C1c1cccnc1` (configuration not stated) the Potency was inconclusive [inhibitor, single point].
For `Cc1c2cnn(-c3ccccc3)c(=O)c2c(C)n1CCCC(=O)N1CCN(C2CCCCC2)CC1`, the Potency was inconclusive [inhibitor, single point].
